# The other results are listed elsewhere or left out.
# System: PfAP2-HC AP2 domain (GST-tagged)
# Assay: gcPBM binding intensity (ln(normalized median fluorescence intensity)); higher = stronger DNA binding
# Outline: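 GST-tagged P. falciparum DNA-binding domains produced in E. coli were incubated for 1 h on an Agilent 4 × 180k array of primer-extended double-stranded 36-bp intergenic genomic probes with negative controls. Binding intensity is the highest Masliner-normalised natural-log median intensity across replicate spots of either probe orientation, with bound protein detected by Alexa488 anti-GST antibody at 488 nm.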
row,Sequence,gcPBM binding intensity (ln)
1,TACACCCATAGACACACACACACGCATAAAAAAAAA [CACACA_site8428],11.1
2,AAAAAACAAAAAATTACACACATATATAAATATATT [CACACA_site2317],9.85
3,TAATAAAGGTGTAATACACACTATAAAAAGGAATAT [CACACA_site4756],10
4,ATGTGTATATATTATTGTACATATATATATATATAT [XGTACX_site4627],9.82
5,ACAAGTTAAAATATTACACACATATAAATATATATA [CACACA_site3132],9.8
6,TTTTATTTACACAGTGGTACTATTAAAAATTAATGA [XGTACX_site6737],9.4
7,ATAAGGTTACAACAAACACACAAAGGAATATACTCA [CACACA_site6108],10
8,TTTTTTAACCTTTTATGTACACAATATTTAACATTT [XGTACX_site1170],9.77
9,ACTTACACAGTTGATGGTACACTTTTATGATTTTGT [XGTACX_site3205],9.91
10,TATATATAAAGGTGTACACATATATATATATCTGTA [CACACA_site5311],9.71
11,ATTTCATATTATGTAACACACAACAAGATAATCAAA [CACACA_site1960],9.75
12,TTTTTCAAATTTAATACACACACAAGTATATATTTA [CACACA_site9307],9.73
13,TTTTTCTTTTTACATACACACAAAAAAATAAAATAT [CACACA_site581],9.49
14,AAATTAATATTATGTGCATGCACAAAGAGGAACGAC [TGCATGCA_site754],10.1
15,TGGTAATTTCTTTGATAAAAATTAATATGTATAAAT [XGTACX_negctrl_site152],9.29
16,ATAATATGAAAACACACACACACACTAGAAAAAAAA [CACACA_site5153],10.9
17,AAAAAAAAAAATATAACACACAACAAAAAAATATAT [CACACA_site1753],10.4
18,ATTATTTAAATGGATGCACACATGCATTAAATAAAA [CACACA_site5831],9.68
19,AATATTTGTTAAAGAGGTACACCATTTGGTAGGGAA [XGTACX_site2165],9.75
20,TATTTTAACATTAGGTGTACATACAAAAATAAAAAT [XGTACX_site8577],9.76
21,TCATACATGGTGTGTTTGCACTTGACCTATATTCAT,9.74
22,TCTTGAATAACAAAAAAATGTGCCAACAAAATAAAT [XGTACX_negctrl_site172],9.66

row,Sequence,gcPBM binding intensity (ln)
1,TTTGTAAAACTATATTGTACTTTTATATATCTACAA [XGTACX_site5507],9.52
2,ACAACTCGGAAGGTTTGTACTTAAAGTATAATTAAG [XGTACX_site737],9.44
3,AATTGGAAGAAAAAAAAGGAAGGAAAGTTATTACAT [GTGCAC_negctrl_site74],9.51
4,TATATACATGCATATACACACATATATTTATTTATA [CACACA_site6327],9.77
5,TACTGAAATAATTATTTAAACGTTTTTATATGTATT [CACACA_negctrl_site487],9.82
6,TTTATTTTTTCCAAGTCACACATGTTTTGATATATT [CACACA_site4946],9.74
7,GTATATATGTATGTATGTACGTATATAGTTATGTAT [XGTACX_site6769],9.86
8,ATAAAAAAATTAAATACATGCACATATACACATACA [TGCATGCA_site129],10
9,TAAATAGATGTTTTATGTACGTATAAATAAAAAAAA [XGTACX_site3412],9.68
10,TTTTTTTAAAGACATGCATGTAATATTTAAATCATT [TGCATGCA_site495],9.72
11,ATTAAAAATATAGTCACACATACACCCATATATATT [CACACA_site5394],9.97
12,AGGATACACAGACACACACACATATATATATATATA [CACACA_site907],10.8
13,ATACAACGATATATATATATACAAATACATATTTAT [CACACA_negctrl_site268],9.85
14,GATTTTTTTTTGTGGACACACAGAAATAAATTTATA [CACACA_site327],9.58
15,CACATACAGATATATACACACAAATATATATACTCA [CACACA_site4591],10.1
16,AATATATTTTTTCACTGTACTTTTATTATATATACA [XGTACX_site8312],9.96
17,AAAAAAAATGGATGATCACACACTTCATAAAAATTG [CACACA_site2213],9.79
18,ATAATTTTTTGATTTGCATGTAATAAATATATGATA [TGCATGCA_site384],9.39
19,AATTCATTTAAAAGTTGTACAAGCTTAATAAAAAAA [XGTACX_site6073],9.68
20,ATATACACATAAAGTAGTACACCTGAAATTTTTTTT [XGTACX_site2951],9.73
21,GAGGATATATTATATGTACACACATATATAACGGAT [CACACA_site8361],9.94
22,GTATTTTTTTTAATATGTACATATAAAATATTTTAT [XGTACX_site8329],9.77

row,Sequence,gcPBM binding intensity (ln)
1,AATACAATTTATAACACACACACAATAATACATATA [CACACA_site1252],10.5
2,ATATAAGTTTATATATGTACATATATATATTATATA [XGTACX_site2068],9.62
3,AATATATGAATTAGAAGTACAAATAAATATTTATTT [XGTACX_site2062],9.53
4,TTAATCATAAAAGTCACACATAATAAGAAAAAGCTT [CACACA_site4616],9.7
5,CCCATGCATTTTTGCACACACATATATATATAAATA [CACACA_site1430],9.86
6,AATTAAAAATATAAATGTACATATATGTAAAACTTT [XGTACX_site123],9.97
7,AAGAGTTTGAAGTTTGCACACTACGTTAAAAATAAA [CACACA_site3939],9.66
8,AATATAATGTAATATACACACATATATTTCTCTTTT [CACACA_site5451],9.87
9,CCACATTTTACAGACACACACAATTTATATTACGGT [CACACA_site1894],10.4
10,AAAAATTTATTTTTAGGTACACAATTGAATTATTTA [XGTACX_site7008],9.39
11,TGTAGTCTGGAGAAAAGTACATAGTATCTGATAACC [XGTACX_site2018],9.56
12,GTGCATATATGATATACACACAATATAATAGTATGT [CACACA_site2460],9.82
13,TGAAGAAAATATTAATGTACATATTATATATATATA [XGTACX_site5497],9.56
14,CCTCCCATTTTTACACGTACACATTTAAAATAGACT [XGTACX_site5640],9.73
15,ATAATAAAAAAAAAATGTACATAAATCTAAAATCCT [XGTACX_site5823],9.7
16,ATATATTTAAATAAAAGTACGTAAAGGTATATTTAA [XGTACX_site8088],9.85
17,ATTTAAAAAAAAATGGCACACATTTTAATTTTATGT [CACACA_site1740],9.74
18,TTTTTAATGATCAGACGTACAGTTATGAAGAAATTT [XGTACX_site6394],9.5
19,TTGTGTCATATATTTTGTAATCAAAATAATTTTATT [TGCATGCA_negctrl_site307],9.56
20,TTTTTGTTTCGTTACGCATGCCAAAAGTAAAAATAT [TGCATGCA_site536],9.52
21,TATTATAAATTAATTTTAAACTTTATTATTATGATA [GTGCAC_negctrl_site389],9.22
22,GTAATGTCGTCGTTTTGTACATATTTTTATAAAAAG [XGTACX_site2688],9.65

row,Sequence,gcPBM binding intensity (ln)
1,AAAAAAAAAAAGAACTCACACATAATAATGTATATG [CACACA_site4974],9.66
2,AAAGGAGACAGAATAAGAATAAATATTATACATATA [XGTACX_negctrl_site412],9.62
3,TATTAGTCGAATGATGTACACACATACAAAACATTT [CACACA_site9331],9.86
4,TTAAAATTATATCTGTGTACATAAATTGTGTAACTA [XGTACX_site1966],9.54
5,TGGGAAAACCCCAGAAGTACGCTTAATATAAAAAAT [XGTACX_site697],9.34
6,ATAATGTTCCTATGATGTACTTATAATTATCATTTT [XGTACX_site4017],10
7,ATTAAAATAATATAAACACACATATACTTTTTTCTA [CACACA_site565],9.79
8,TATTGTTCGTTTAAGGTGCTATTGTTTGCAAAATAT [GTGCAC_site9412],9.64
9,AAGAGGTTATTACATTCACATAACATCAATATACGT [GTGCAC_negctrl_site264],9.68
10,ATTCATATGTGACACACACACACACGCATAAAAAAA [CACACA_site7515],10.6
11,TTAAAACATATTTTGAATTAATATATTTTAATATTA [XGTACX_negctrl_site148],9.12
12,TAGCGTACATTTCATTGTAATCATAAAAAATAAAGA [CACACA_negctrl_site447],9.55
13,ACAAAAATATATATATGTACATATATCATCATAATA [XGTACX_site5850],9.68
14,TTTATTAGAACCGTACGTACATAGTTATTTTTTCAA [XGTACX_site8848],9.56
15,TTTAAAACCCTAAAAAAAAAAAAAAAAAAAAAAAAA [CACACA_negctrl_site1212],9.01
16,GTTTGTATAGGTTCATGTACAAAAAAAAAAAAAAAA [XGTACX_site537],9.23
17,ATGCATAAAAGAAATACACACATAAATATGTAAATA [CACACA_site7087],9.93
18,TTTTATCTCATTCATCAAAATCACCGGAATCATATA [CACACA_negctrl_site357],9.27
19,TAATAAACAAATTCCAAAATAAATTAAAAGGAAAAT [CACACA_negctrl_site1404],9.67
20,AGGTATATATTACAAGTGCACTGTAAAATTAAAATT,9.72
21,ATTTATTTATATTTAGTGCAATACTATTTTTAAATA [GTGCAC_site9886],9.48
22,ATTTTATCATAATAAAGTACAAAGATGCAAATAATA [XGTACX_site2270],9.69

# Source: the supplement of paper PMC11417369
